{"source": "the supplement of paper PMC11876631", "parents": {"B1": {"name": "argS; numbered along this chain (parent)", "chain": "MNIQALLSEKVRQAMIAAGAPADCEPQVRQSAKVQFGDYQANGMMAVAKKLGMAPRQLAEQVLTHLDLNGIASKVEIAGPGFINIFLDPAFLAEHVQQALASDRLGVATPEKQTIVVDYSAPNVAKEMHVGHLRSTIIGDAAVRTLEFLGHKVIRANHVGDWGTQFGMLIAWLEKQQQENAGEMELADLEGFYRDAKKHYDEDEEFAERARNYVVKLQSGDEYFREMWRKLVDITMTQNQITYDRLNVTLTRDDVMGESLYNPMLPGIVADLKAKGLAVESEGATVVFLDEFKNKEGEPMGVIIQKKDGGYLYTTTDIACAKYRYETLHADRVLYYIDSRQHQHLMQAWAIVRKAGYVPESVPLEHHMFGMMLGKDGKPFKTRAGGTVKLADLLDEALERARRLVAEKNPDMPADELEKLANAVGIGAVKYADLSKNRTTDYIFDWDNMLAFEGNTAPYMQYAYTRVLSVFRKAEIDEEQLAAAPVIIREDREAQLAARLLQFEETLTVVAREGTPHVMCAYLYDLAGLFSGFYEHCPILSAENEEVRNSRLKLAQLTAKTLKLGLDTLGIETVERM"}, "B2": {"name": "purF; numbered along this chain (parent)", "chain": "MCGIVGIAGVMPVNQSIYDALTVLQHRGQDAAGIITIDANNCFRLRKANGLVSDVFEARHMQRLQGNMGIGHVRYPTAGSSSASEAQPFYVNSPYGITLAHNGNLTNAHELRKKLFEEKRRHINTTSDSEILLNIFASELDNFRHYPLEADNIFAAIAATNRLIRGAYACVAMIIGHGMVAFRDPNGIRPLVLGKRDIDENRTEYMVASESVALDTLGFDFLRDVAPGEAIYITEEGQLFTRQCADNPVSNPCLFEYVYFARPDSFIDKISVYSARVNMGTKLGEKIAREWEDLDIDVVIPIPETSCDIALEIARILGKPYRQGFVKNRYVGRTFIMPGQQLRRKSVRRKLNANRAEFRDKNVLLVDDSIVRGTTSEQIIEMAREAGAKKVYLASAAPEIRFPNVYGIDMPSATELIAHGREVDEIRQIIGADGLIFQDLNDLIDAVRAENPDIQQFECSVFNGVYVTKDVDQGYLDFLDTLRNDDAKAVQRQNEVENLEMHNEG"}}, "note": "± gives the standard deviation of the averaged measurements. Laboratory Escherichia coli strains with one amino-acid change in an essential protein, pooled on minimal glucose agar with carbenicillin or gentamicin at twice the control MIC (plus kanamycin and chloramphenicol for the plasmids), 48 h. Fold change of barcode share against drug-free plates; higher = less susceptible. Active = above 20 in both replicates (the paper's putatively resistant). '<' = one read or none on drug, '>' = one read or none on a drug-free plate. Shares are relative, so most strains fall below 1 when a few take over. Listed are strains with at least 15 reads on both drug-free plates, and hits; most hits rest on fewer reference reads. Replicate rank correlation about 0.5. Edits are read from barcodes.", "data": [{"variants_of": "B1", "experiment": "barcode share on antibiotic plates over drug-free plates; higher = less susceptible", "settings": "with Escherichia coli (laboratory strain); antibiotic: carbenicillin; 2× MIC (3.1 µg/mL)", "experimental": "(§1)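 A pool of E. coli strains, each edited to carry one amino-acid change in an essential protein, was grown for 48 h on minimal glucose agar with or without antibiotic; strain barcodes were sequenced; mean of two replicates.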", "values": [{"variant": "I83Q", "fold change of barcode share": "0.182 ± 0.0028"}, {"variant": "I83W", "fold change of barcode share": "0.211 ± 0.034"}]}, {"variants_of": "B1", "experiment": "barcode share on antibiotic plates over drug-free plates; higher = less susceptible", "settings": "with Escherichia coli (laboratory strain); antibiotic: gentamicin; 2× MIC (MIC 0.45 µg/mL)", "experimental": "as §1", "values": [{"variant": "I83Q", "fold change of barcode share": "< 0.00886"}, {"variant": "I83W", "fold change of barcode share": "< 0.00618"}]}, {"variants_of": "B2", "experiment": "barcode share on antibiotic plates over drug-free plates; higher = less susceptible", "settings": "with Escherichia coli (laboratory strain); antibiotic: carbenicillin; 2× MIC (3.1 µg/mL)", "experimental": "as §1", "values": [{"variant": "V171D", "fold change of barcode share": "> 181 [active]"}, {"variant": "V171A", "fold change of barcode share": "0.617 ± 0.11"}, {"variant": "V171P", "fold change of barcode share": "51.3 [active]"}, {"variant": "F255W", "fold change of barcode share": "2.39 ± 0.76"}, {"variant": "F255A", "fold change of barcode share": "0.631 ± 0.06"}, {"variant": "F255Q", "fold change of barcode share": "0.581 ± 0.014"}, {"variant": "M173P", "fold change of barcode share": "110 [active]"}, {"variant": "M173D", "fold change of barcode share": "9.29 ± 3.3"}, {"variant": "M173Q", "fold change of barcode share": "0.528 ± 0.19"}, {"variant": "M173A", "fold change of barcode share": "0.507 ± 0.016"}, {"variant": "M173W", "fold change of barcode share": "0.749 ± 0.2"}, {"variant": "I174P", "fold change of barcode share": "89.5 [active]"}, {"variant": "I174A", "fold change of barcode share": "0.769 ± 0.066"}, {"variant": "I174W", "fold change of barcode share": "7.54 ± 0.57"}, {"variant": "I174Q", "fold change of barcode share": "3 ± 0.39"}, {"variant": "L254D", "fold change of barcode share": "0.494 ± 0.033"}, {"variant": "L254Q", "fold change of barcode share": "0.349 ± 0.095"}, {"variant": "L24A", "fold change of barcode share": "1.31 ± 0.82"}, {"variant": "L24Q", "fold change of barcode share": "4.34 ± 0.28"}, {"variant": "L24W", "fold change of barcode share": "55.2 [active]"}, {"variant": "L24P", "fold change of barcode share": "4.4 ± 0.42"}, {"variant": "L479A", "fold change of barcode share": "6.39 ± 1.6"}, {"variant": "L479D", "fold change of barcode share": "1.31 ± 0.35"}, {"variant": "L479W", "fold change of barcode share": "6.1519 ± 0.0019"}, {"variant": "I35Q", "fold change of barcode share": "0.55 ± 0.075"}, {"variant": "I35P", "fold change of barcode share": "> 30.5 [active]"}, {"variant": "I35D", "fold change of barcode share": "0.7785 ± 0.0065"}, {"variant": "I35A", "fold change of barcode share": "0.687 ± 0.024"}, {"variant": "I35W", "fold change of barcode share": "0.558 ± 0.12"}]}, {"variants_of": "B2", "experiment": "barcode share on antibiotic plates over drug-free plates; higher = less susceptible", "settings": "with Escherichia coli (laboratory strain); antibiotic: gentamicin; 2× MIC (MIC 0.45 µg/mL)", "experimental": "as §1", "values": [{"variant": "V171A", "fold change of barcode share": "0.0116 ± 0.015"}, {"variant": "F255Q", "fold change of barcode share": "< 0.0195"}, {"variant": "M173D", "fold change of barcode share": "0.00729 ± 0.0075"}, {"variant": "M173Q", "fold change of barcode share": "0.0136 ± 0.013"}, {"variant": "M173A", "fold change of barcode share": "0.00701 ± 0.0066"}, {"variant": "M173W", "fold change of barcode share": "0.0214 ± 0.027"}, {"variant": "I174D", "fold change of barcode share": "< 0.0234"}, {"variant": "I174A", "fold change of barcode share": "0.00257 ± 0.00043"}, {"variant": "I174W", "fold change of barcode share": "0.00911 ± 0.0053"}, {"variant": "I174Q", "fold change of barcode share": "0.00576 ± 0.0037"}, {"variant": "L24A", "fold change of barcode share": "< 0.0032"}, {"variant": "L24Q", "fold change of barcode share": "0.00689 ± 0.0032"}, {"variant": "L24P", "fold change of barcode share": "0.0207 ± 0.0029"}, {"variant": "L479A", "fold change of barcode share": "< 0.0196"}, {"variant": "L479D", "fold change of barcode share": "0.0109 ± 0.0061"}, {"variant": "L479W", "fold change of barcode share": "< 0.012"}, {"variant": "I35Q", "fold change of barcode share": "0.00411 ± 0.0023"}, {"variant": "I35D", "fold change of barcode share": "0.0199 ± 0.0011"}, {"variant": "I35A", "fold change of barcode share": "< 0.00324"}, {"variant": "I35W", "fold change of barcode share": "0.00599 ± 0.0051"}]}]}
